# PubChem BioAssay AID596 (National Center for Advancing Translational Sciences (NCATS), 2007)
# “And” between values parts separate entries of the source, which are not always exact repeats. Equal values may be shown once. About 1,400 (2%) of roughly 71,000 compounds were called active. Inconclusive means that the source gave no clear call. Such entries were picked first, then a sample of the others. Calls follow the shape of the dose curve; as a rule, active = well fitted curve in the direction sought with a large enough effect; inconclusive = small, poorly fitted or top-dose-only effect; inactive = no such curve, though single readings can be large or run the other way. Potencies of inconclusive entries are doubtful fits and often do not repeat.
# Biological target: Microtubule-associated protein tau (Homo sapiens) (UniProt P10636)
# Assay: qHTS Assay for Tau Filament Binding;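 also: actives lower thioflavin S fluorescence by blocking filaments or displacing dye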
# Conditions: recombinant tau filaments, thioflavin S fluorescence, 15 h, filaments grown with octadecylsulfate alongside compound; series mostly up to 57.1 µM
# Summary of the method: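 Assay mix: 1 uM His-tagged tau, 30 uM sodium octadecylsulfate, thioflavine S dye in HEPES/NaCl/DTT buffer. Compound is added prior to the inducer. Fluorescence after 15 h at 37 C.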
# % is scaled to controls: 0 for no effect and ±100 for the full control effect; potency is read from the fitted curve at half-maximal effect.
# Chain of UniProt P10636 (P10636 whole entry, looked up): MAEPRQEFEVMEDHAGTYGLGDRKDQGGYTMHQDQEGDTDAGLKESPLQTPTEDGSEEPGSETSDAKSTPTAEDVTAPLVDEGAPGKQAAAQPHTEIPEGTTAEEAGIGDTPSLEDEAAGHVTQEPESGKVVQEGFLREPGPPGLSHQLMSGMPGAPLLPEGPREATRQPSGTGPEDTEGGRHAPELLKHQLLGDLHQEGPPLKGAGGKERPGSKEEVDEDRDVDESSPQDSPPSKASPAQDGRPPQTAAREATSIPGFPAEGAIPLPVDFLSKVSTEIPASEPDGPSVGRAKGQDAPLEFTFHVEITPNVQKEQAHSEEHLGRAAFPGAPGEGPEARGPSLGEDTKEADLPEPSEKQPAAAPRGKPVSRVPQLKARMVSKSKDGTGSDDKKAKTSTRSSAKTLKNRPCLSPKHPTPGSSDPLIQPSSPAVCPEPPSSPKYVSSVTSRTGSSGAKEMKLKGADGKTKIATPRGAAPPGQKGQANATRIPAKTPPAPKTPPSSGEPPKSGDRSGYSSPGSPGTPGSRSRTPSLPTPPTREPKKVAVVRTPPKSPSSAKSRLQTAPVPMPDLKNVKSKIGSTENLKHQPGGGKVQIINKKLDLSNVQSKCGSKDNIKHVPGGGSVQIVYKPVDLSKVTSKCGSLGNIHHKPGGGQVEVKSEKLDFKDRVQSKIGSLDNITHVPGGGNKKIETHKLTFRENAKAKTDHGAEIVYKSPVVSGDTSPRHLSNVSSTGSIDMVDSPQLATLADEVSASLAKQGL
SMILES,Potency,"activity change, negative = inhibition"
CCOC(=O)NCc1ccc2c(c1)cc(C)n2C,inconclusive: 31.6 µM [decreasing],
C[C@@H](CN(C)C)CN1c2ccccc2Sc2ccccc21,inconclusive: 5.01 µM [decreasing],
C=CCn1c(=O)c2ccccc2n2c(SCC(=O)c3ccccc3)nnc12,inactive,
O=C(NCCCn1ccnc1)c1cn(-c2ccccc2)nc1-c1ccc(F)cc1,inactive,
CC(=O)C1=C(C)NC(SCC(=O)c2ccc(Cl)c(Cl)c2)=C(C#N)C1c1ccco1 (stereo not given),active: 1 µM,
Cc1nc2ccccc2c2c1C(=O)N(CCC1=CCCCC1)C2=O,inconclusive: 3.16 µM [decreasing],
c1ccc(-c2cc(-c3nc(-c4cccnc4)no3)c3ccccc3n2)cc1,active: 3.98 µM,
CC1(C)Cc2cccc(OCC(=O)O)c2O1,inactive,
O=C1C=CC2=C3c4cc(O)c(O)cc4C[C@@]3(O)COC2=C1O,inconclusive: 39.8 µM [decreasing],
N#CC(=C(/N)Sc1ccccc1N)/C(C#N)=C(/N)Sc1ccccc1N,inconclusive: 31.6 µM [decreasing] and inconclusive: 39.8 µM [decreasing],
CN1CCc2c(sc3c2C(=O)NC(c2ccc(-c4cccc(Cl)c4)o2)N3)C1 (stereo not given),active: 1.26 µM,
COc1ccc(OCC(=O)Nc2ccc(N3CCOCC3)cc2)cc1,inconclusive: 31.6 µM [decreasing],
CN1CCN2c3ccccc3Cc3ccccc3[C@@H]2C1,inconclusive: 39.8 µM [decreasing],
CC(=O)ON(C(C)=O)S(=O)(=O)c1ccc(Cl)cc1,inconclusive: 39.8 µM [decreasing],
C/C(=C\COc1cc(=O)[nH]c2ccccc12)CC[C@@H](O)C(C)(C)O,active: 39.8 µM,
CC(C)NC[C@@H](O)c1ccc(O)c2ncccc12,,inactive: -6.4% [at 11.4 µM]
O=C(C1CCCN(S(=O)(=O)c2cccc3cccnc23)C1)N1CCc2ccccc21 (stereo not given),inconclusive: 31.6 µM [decreasing],
O=c1c(-c2ccc(F)cc2)nc2cnc(Oc3cccc(Cl)c3)nc2n1C[C@H]1CCCO1,inconclusive: 12.6 µM [decreasing],
C[C@@H]1C(=O)O[C@H]2[C@@H](O)[C@@]34[C@H]5C[C@H](C(C)(C)C)[C@@]36[C@H](OC(=O)[C@@H]6O)O[C@@]4(C(=O)O5)[C@@]12O,inconclusive: 31.6 µM [decreasing],
Cc1ccc2cccc(NC(=O)C(F)(F)F)c2n1,inconclusive: 25.1 µM [decreasing],
CC(=O)N1CCN(c2ccc(NCc3cccs3)cc2)CC1,active: 25.1 µM,
COc1cc(-c2ccc(N=Nc3ccc4c(S(=O)(=O)O)cc(S(=O)(=O)O)c(N)c4c3O)c(OC)c2)ccc1N=Nc1ccc2c(S(=O)(=O)O)cc(S(=O)(=O)O)c(N)c2c1O,active: 12.6 µM,
CCCOc1ccc(C2c3c(oc4cc(C)c(C)cc4c3=O)C(=O)N2CCCN(C)C)cc1 (stereo not given),inconclusive: 3.16 µM [decreasing],
O=C(O)c1nc2ccccc2nc1C(=O)O,inactive,
CCc1ccc(C2CC(c3ccccc3C)n3nc(N)nc3N2)cc1 (stereo not given),inconclusive: 31.6 µM [decreasing],
O=C(c1ccncc1)N1CCC[C@@]2(CCN(c3ccccn3)C2)C1,inactive,
N=c1c(C(=O)NCc2ccco2)cc2c(=O)n3ccccc3nc2n1CCc1ccccc1,active: 0.631 µM,
COc1cc(/C=N\n2nnnc2N)ccc1OCc1ccc(F)cc1,inactive,
CN(C)CCCN1c2ccc(O)cc2Sc2ccc(Cl)cc21,active: 3.16 µM,
CNc1ccc(C(O)(C(F)(F)F)C(F)(F)F)cc1C(O)(C(F)(F)F)C(F)(F)F,inactive,
